The values that follow come from the supplement of paper PMC11417369.

± gives the standard deviation of the averaged measurements. Some of the results follow.

This test relates to PfAP2-EXP AP2 domain (GST-tagged). The test can be described thus: gcPBM binding intensity (ln(normalized median fluorescence intensity)); higher = stronger DNA binding. Summed up:
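GST-tagged P. falciparum DNA-binding domains, expressed in E. coli (about 25 μg on average), were applied for 1 h to an Agilent 4 × 180k array of primer-extended double-stranded 36-bp intergenic genomic probes plus negative controls. The binding buffer was 1× PBS with 1% milk, 0.2 mg/ml BSA, 0.5% salmon testes DNA and 0.03% Triton X-100. Bound protein was detected with Alexa488 anti-GST antibody and scanned at 488 nm. Binding intensity is the highest Masliner-normalised natural-log median intensity across replicate spots of either probe orientation.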
For the sequence “AACATCTCATATCGTACTACACTCATATATATATAT [XGTACX_site170]”, the “gcPBM binding intensity (ln)” value was 10 ± 0.23. For “ATAAAATGAACCTTTTGTACATATATATATATATAT [XGTACX_site4610]” the value was 10.1 ± 0.57; for “ATATTATATATATATAAACACACAAATATTTTTATA [CACACA_site8486]”, 8.43 ± 0.49. Then CATAAATAAGCTTTAGTGCATTATATTTAAATTTTT, with 8.44 ± 0.13. Then “TTTAATAATAATAAAAGTACACAAATATAAAGGAAA [XGTACX_site5203]”, with 8.86 ± 0.41; and “TGAATATTTCTATATACACACATATATATATATATA [CACACA_site3451]”, with 10.3 ± 0.12; and AGGTTTTCTTAAATAGTGCATTATAACAAAAATAAA, with 8.99 ± 0.39. On to “TCACGTATGTATATTACACACATACATATTATTCAC [CACACA_site4276]”, for which the “gcPBM binding intensity (ln)” value stood at 8.59 ± 0.38. In the case of “TTATACTAAATGAACACACACACATCTATATTTATA [CACACA_site6199]”, the “gcPBM binding intensity (ln)” value is 8.57 ± 0.45. Regarding “AATTAAAATAATAATACACACATCATAGAAAAAGAC [CACACA_site292]”, the “gcPBM binding intensity (ln)” value came to 9.31 ± 0.2. Consider “AAATTAGACTATAATACACACATAAAAAAAAAATCA [CACACA_site7672]”, for which the “gcPBM binding intensity (ln)” value was 8.59 ± 0.53.

For the sequence “AATTGGGTAGGACATGCATGAGAAATTAATATTGCA [TGCATGCA_site356]”, the “gcPBM binding intensity (ln)” value stood at 9.3 ± 0.49. Then “ATATATATATATATATGTACTAACCTTTTAAAATAT [XGTACX_site6488]”, with 10.1 ± 0.38; and “ATGTCAAACATTTGCACACAAAAAAATAAAAATTAA [CACACA_site692]”, with 8.46 ± 0.29; and “AATCAAAGCCCACATACACACACATATATATATATA [CACACA_site7987]”, with 10.1 ± 0.29. Then “TATTACATTGTTGAATGTACTCATTTAAAATTTATA [XGTACX_site7987]”, with 8.34 ± 0.38.

For “TTTTTTTTTTTTTGCACACACATAATAGGTACAAAT [CACACA_site3577]”, the “gcPBM binding intensity (ln)” value came to 8.49 ± 0.35. For the sequence “CATATTTACTATCACACACACGATATATATAAATAT [CACACA_site1241]”, the “gcPBM binding intensity (ln)” value worked out at 8.66 ± 0.46.

Consider “TTTTTTTTTTTTTTCTCACACATTTAATGATAATAT [CACACA_site5513]”, for which the “gcPBM binding intensity (ln)” value was found to be 8.52 ± 0.45. On to “CTATTTTTATATTATTGTACGTTGTTATTATATATA [XGTACX_site1469]”, for which the “gcPBM binding intensity (ln)” value was 8.96 ± 0.45.

With “CTAAGCTAAGTAAGCTGTACTTCACCTTTATACAGT [XGTACX_site3087]”, the “gcPBM binding intensity (ln)” value turned out to be 8.63 ± 0.33. Then “TAATATTATTTAGAGTGTACTCATAAATCAACAAAA [XGTACX_site5269]”, with 8.35 ± 0.36. Then “ATATAGAACACCTGTGCATGCAAGTGCTAAAAAATT [TGCATGCA_site213]”, with 10.175 ± 0.007; and “TTTATATTTATATATACACACATATACATCCTATTT [CACACA_site3079]”, with 8.54 ± 0.31; and ATATATATGGAAACAGTGCAATACATATATATATAT, with 10.1 ± 0.33. Then “TTTTTCTTAAAAAATTGTACACATATATATATATAT [XGTACX_site542]”, with 10.3 ± 0.22; and “ATTAAGTTAAACATTACACACTATGTATTATTTATG [CACACA_site973]”, with 8.53 ± 0.43. Consider “TTTTTTTTTTTTAATACACACATATTTATATTTATT [CACACA_site7802]”, for which the “gcPBM binding intensity (ln)” value turned out to be 8.44 ± 0.3. Then “ATATTTTTATTTAAACGTACATACACGTTGAAAAGA [XGTACX_site4567]”, with 8.46 ± 0.28; and “TGCTATATAATATGAGCACACATAAGATTTGGTGTT [CACACA_site8148]”, with 8.28 ± 0.4. For “AACTGTACAATTTTTGTGCACAATAATTATTAATAT [GTGCAC_site9462]” the value was 9.04 ± 0.16; for “TTTTTCTTTTGATGTTGTACATATATATTATATATA [XGTACX_site2754]”, 8.71 ± 0.46; for “TAATGCATTATTAGAATACACACCATACGCATATTT [CACACA_site289]”, 8.61 ± 0.4.

Turning to “TGATGTTGTAACAAAAGTACACACACATTTCTATAA [XGTACX_site5837]”, the “gcPBM binding intensity (ln)” value amounted to 8.24 ± 0.21. Consider “TTTTCAATTAATAATACACACATGTATATATCATTA [CACACA_site7539]”, for which the “gcPBM binding intensity (ln)” value was 8.3 ± 0.28. Take “AAGAAAAAAAAAAAAAATATATATATAAGAACATAT [TGCATGCA_negctrl_site131]”: the “gcPBM binding intensity (ln)” value was found to be 8.91 ± 1. Then “GATAAAACGTTATGCACACGTACGTGGGTATTTATA [CACACA_site4954]”, with 8.85 ± 0.31; and “AATCTGATTTGTATATGTACACAAATATTTTTATTT [XGTACX_site5295]”, with 8.74 ± 0.41. For “AACTATAAAAAAAATACACACATTACCAAAAATATA [CACACA_site1529]” the value was 8.61 ± 0.44; for “TATAAAAAAATATATATATATATATATATATAAATA [TGCATGCA_negctrl_site22]”, 8.57 ± 0.12. Then “TTTAATAATTATTAAAGTACAAAATAAATATTGAAT [XGTACX_site7538]”, with 8.79 ± 0.66; and “TTATGTAAAATCGATACATGCATTAATCATTTTATA [TGCATGCA_site493]”, with 8.45 ± 0.33. Regarding “TATGATATGTTATACACACACGTATTTATGAATTGA [CACACA_site7591]”, the “gcPBM binding intensity (ln)” value amounted to 8.54 ± 0.4. For “TCATATTTCCATAGGAGTACATAAAAAAAATAATAT [XGTACX_site7601]” the value was 8.69 ± 0.36; for “ATTTATATTAATGGATAAATAAATGTGTACTTGATA [CACACA_negctrl_site24]”, 8.345 ± 0.007; for “TTCTTTATTATATGCACACGTACATATAATATATAT [CACACA_site2018]”, 8.815 ± 0.049.

Turning to “AAAAAAAAAAAACACACACACATATATATATATATA [CACACA_site732]”, the “gcPBM binding intensity (ln)” value stood at 10.2 ± 0.38. Then “ATCAACAAAACATACACACACATATAGATTTATATA [CACACA_site7415]”, with 8.59 ± 0.42; and “AATTAGCTATTTAAAAATATATAAAATTTATATATA [CACACA_negctrl_site390]”, with 8.01 ± 0.39; and “ATCATATTGAATATTTAACACACATTTCGCTTAATT [CACACA_site8652]”, with 8.64 ± 0.47. For “GAAATAGAGAGACACACACACATATATTTATGTATT [CACACA_site7794]” the value was 8.3 ± 0.45; for AAAATGTAGAAATGGGTGCACACACATATATAATAT, 9.05 ± 0.12; for “TATATATATAAAAGTTGTACAGTGTTTTATATAGTT [XGTACX_site7085]”, 8.925 ± 0.078.

Take “TATATATATATATATATATATATATATGTGTATGTA [TGCATGCA_negctrl_site255]”: the “gcPBM binding intensity (ln)” value is 10.1 ± 0.33.

“TATATATTTATTTATTGTACACTCTTTAAGAATACA [XGTACX_site2569]”: the “gcPBM binding intensity (ln)” value came out at 8.48 ± 0.22. For “GATTCGATCTATATATGTACACATAAATATTTTTTG [XGTACX_site7015]” the value was 8.83 ± 0.31; for “AATAAAATTGACCATTCACACAAGAAAAATTAATCA [CACACA_site5636]”, 8.37 ± 0.32; for ATACACAAGAATATGTTGCACTTTTATATTCGTATG, 8.8 ± 0.34. Then “GATATATAAATTGACACACACATATATACCTATATA [CACACA_site6689]”, with 8.53 ± 0.36; and “TTCTTTTTTTTTTTTTCATGTATATTAAACTTTTCA [TGCATGCA_negctrl_site592]”, with 8.49 ± 0.51; and “CATAAGATTTTTACATGTACATATTTATAATATATT [XGTACX_site6578]”, with 8.96 ± 0.4. For “AATATTTATATTAACTGTACAGAAAATATCTTTGCT [XGTACX_site8130]” the value was 8.38 ± 0.36; for “TATGCCATGGCATAATGTACATAAGTGACCTCATAA [XGTACX_site1294]”, 8.74 ± 0.49; for “AATATAAAAATGTTTACACACACACCGAAATATATT [CACACA_site8800]”, 8.97 ± 0.36.

With “ATATATTTAAAAAAATGTACAAATCATAAATGCAAG [XGTACX_site4230]”, the “gcPBM binding intensity (ln)” value turned out to be 8.78 ± 0.34.

As for “AAAAAATTATACCAGTGTACTTTTTTGGTTTTTCTT [XGTACX_site2601]”, the “gcPBM binding intensity (ln)” value was 8.51 ± 0.36. For “AGAAATTAAATGTAAGCACACATAAATTATACACAT [CACACA_site9098]” the value was 8.56 ± 0.37; for “TATAATGTTGATGATAGTACGTATGAGTTCAAAAAA [XGTACX_site3651]”, 8.7 ± 0.34; for “AAAAGAATTAATTTATGTACTAATTTCAAGAAATAA [XGTACX_site3241]”, 8.11 ± 0.25.

With “CTCGATCAAGTGTATGCATGTACCAGTGAACAAAAA [TGCATGCA_site635]”, the “gcPBM binding intensity (ln)” value was 9.04 ± 0.56. As for “ATATATTATCAACTTACACACAGAAAACTATAATAA [CACACA_site6275]”, the “gcPBM binding intensity (ln)” value turned out to be 8.73 ± 0.38. For the sequence “CTTTTTCCTTTATAAAGTACTTAAAATATTTAGATA [XGTACX_site4259]”, the “gcPBM binding intensity (ln)” value was found to be 8.61 ± 0.49. In the case of “TCCTTACACACACTTTTTTTTTTTTTTTTTTCTACA [GTGCAC_negctrl_site263]”, the “gcPBM binding intensity (ln)” value worked out at 8.58 ± 0.54. For “AAAAAAAAAAATAAATGTACAAAATAATGGGGAACA [XGTACX_site8723]”, the “gcPBM binding intensity (ln)” value worked out at 9.01 ± 0.48. Then “GTGAATGATTTAAGTACACACCGGTATTTATTCAAA [CACACA_site4950]”, with 8.6 ± 0.18. For “AAAAAAAAAAAATACACACACACATATTTATTTATA [CACACA_site6483]” the value was 8.32 ± 0.48; for “TTTTTTTTTTTTTTTTGTACGAATAAACAAGTTATT [XGTACX_site5473]”, 7.9 ± 0.58. For TGTATTAAAAATTTGGTGCAACTTTTACATAATAAT the value was 8.585 ± 0.078; for “ATATATATATATATATGTACATATTTTATTTAATTT [XGTACX_site1807]”, 10.2 ± 0.28; for “AAATAAAATTATAACTGTACGTTGTATGAAATAATG [XGTACX_site5462]”, 8.54 ± 0.36.

“TGTATATATATATAAAGTACATATAATATATATTTG [XGTACX_site5411]”: the “gcPBM binding intensity (ln)” value was 8.33 ± 0.31.

As for “CTGTTTAAAATATAAACACACATTGTTTGCTTTAGA [CACACA_site1301]”, the “gcPBM binding intensity (ln)” value was 8.3 ± 0.43. Take “ATTTTTTTACTGCAACCATATTTTTCCCTTTTATTC [CACACA_negctrl_site1282]”: the “gcPBM binding intensity (ln)” value stood at 8.94 ± 0.47. For “GAATACACCACGCACACACACTTGAGAAAAAATAAA [CACACA_site7747]” the value was 8.66 ± 0.44; for “ATTATAATTATTTTGTTGCACTATTTTTGTAGGCCA [GTGCAC_site9734]”, 8.93 ± 0.38. For “TCTATAAAGTTCCATACATGCGCCATCATTTATATT [TGCATGCA_site195]” the value was 9.01 ± 0.48.

Turning to “GTGTACATAGGTATAGCACACACAAATGTAGGTATT [CACACA_site9339]”, the “gcPBM binding intensity (ln)” value was determined as 8.61 ± 0.38. Then “TTTATAAAAATATACACACATACAAATATGCATATA [CACACA_site712]”, with 8.38 ± 0.4; and “GAAAAAAGGAAATAAAGAAAAAAAAAAATGAAATAT [XGTACX_negctrl_site318]”, with 8.64 ± 0.59; and “TTTCTTTTCTCAGAAATTATTCAAATGAAAAAAAAT [TGCATGCA_negctrl_site44]”, with 8.29 ± 0.45.
